# The supplement of paper PMC8728848
# The other results are listed elsewhere or left out.
# B1: Epa22 (Candida glabrata) (protein)
# chain: MGSSHHHHHHSSGLVPRGSHMKRALSSQNPFGYPIGCSPQSTNVIPGLTMELYSYPIVSGTPPNCYDASYVDPEYPRTGYLKRKMIGKSTGVTGSLNYKFSVEKACMVKYGNLPAGYNYNEPLTVSNFTMLLYGYFKPQTSGIHTFFVNADDLLYINFGAGNAFDCCKREDSKFKLGEYVAYDIWHVDSSKNKVSLNLEKDVYYPIRMFFNNIGKDSSLDLSFSVNGAVEHITDFSGYLYSVPDQPDACPAPIGYDTTCK
# What was measured:
# Experiment in all cases: glycan array binding signal (z-score within array); higher = stronger binding
# Details in all cases: glycan notation: IUPAC condensed, linker removed
# Fuc(a1-3)GlcNAc = molecular target: Fuc(a1-3)GlcNAc
# Procedure, shortened: (§1)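 Glycan array binding is given as a within-array Z-score, which can be read as non-binding when negative. The arrays, 3228 of them, came from the Consortium for Functional Glycomics database and were retained only where the protein sequence was available. Z-scores were averaged across arrays of the same protein sequence at different concentrations or buffers and across linkers.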
# [1] = molecular target: Fuc(a1-3)[Gal(b1-4)]Glc6S
# Procedure, shortened: as §1
# [2] = molecular target: Fuc(a1-3)[Gal(b1-4)]GlcNAc
# Procedure, shortened: as §1
# [3] = molecular target: Fuc(a1-3)[Gal(b1-4)]GlcNAc(b1-2)Man
# Procedure, shortened: as §1
# [4] = molecular target: Fuc(a1-3)[Gal(b1-4)]GlcNAc(b1-2)Man(a1-3)[Fuc(a1-3)[Gal(b1-4)]GlcNAc(b1-2)Man(a1-6)]Man(b1-4)GlcNAc(b1-4)GlcNAc
# Procedure, shortened: as §1
# [5] = molecular target: Fuc(a1-3)[Gal(b1-4)]GlcNAc(b1-2)Man(a1-3)[Fuc(a1-3)[Gal(b1-4)]GlcNAc(b1-2)Man(a1-6)]Man(b1-4)GlcNAc(b1-4)[Fuc(a1-6)]GlcNAc
# Procedure, shortened: as §1
# [6] = molecular target: Fuc(a1-3)[Gal(b1-4)]GlcNAc(b1-3)Gal(b1-3)[Fuc(a1-4)]GlcNAc
# Procedure, shortened: as §1
# [7] = molecular target: Fuc(a1-3)[Gal(b1-4)]GlcNAc(b1-3)Gal(b1-4)[Fuc(a1-3)]GlcNAc
# Procedure, shortened: as §1
# [8] = molecular target: Fuc(a1-3)[Gal(b1-4)]GlcNAc(b1-3)Gal(b1-4)[Fuc(a1-3)]GlcNAc(b1-3)Gal(b1-4)[Fuc(a1-3)]GlcNAc
# Procedure, shortened: as §1
# [9] = molecular target: Fuc(a1-3)[Gal(b1-4)]GlcNAc(b1-3)GalNAc
# Procedure, shortened: as §1
# [10] = molecular target: Fuc(a1-3)[Gal(b1-4)]GlcNAc(b1-6)GalNAc
# Procedure, shortened: as §1
# [11] = molecular target: Fuc(a1-3)[Gal(b1-4)]GlcNAc(b1-6)[Gal(b1-3)GlcNAc(b1-3)]Gal(b1-4)Glc
# Procedure, shortened: as §1
# [12] = molecular target: Fuc(a1-3)[Gal(b1-4)]GlcNAc6S
# Procedure, shortened: as §1
# [13] = molecular target: Fuc(a1-3)[Gal3S(b1-4)]Glc
# Procedure, shortened: as §1
# [14] = molecular target: Fuc(a1-3)[Gal3S(b1-4)]GlcNAc
# Procedure, shortened: as §1
# [15] = molecular target: Fuc(a1-3)[Gal3S(b1-4)]GlcNAc6S
# Procedure, shortened: as §1
# [16] = molecular target: Fuc(a1-3)[GalNAc(b1-4)]GlcNAc
# Procedure, shortened: as §1
# [17] = molecular target: Fuc(a1-3)[GalNAc(b1-4)]GlcNAc6S
# Procedure, shortened: as §1
# Fuc(a1-4)GlcNAc = molecular target: Fuc(a1-4)GlcNAc
# Procedure, shortened: as §1
# Fuc(b1-3)GlcNAc = molecular target: Fuc(b1-3)GlcNAc
# Procedure, shortened: as §1
# Gal(a1-2)Gal = molecular target: Gal(a1-2)Gal
# Procedure, shortened: as §1
# Gal(a1-3)Gal = molecular target: Gal(a1-3)Gal
# Procedure, shortened: as §1
# Gal(a1-3)Gal(b1-3)GlcNAc = molecular target: Gal(a1-3)Gal(b1-3)GlcNAc
# Procedure, shortened: as §1
# [18] = molecular target: Gal(a1-3)Gal(b1-3)GlcNAc(b1-2)Man
# Procedure, shortened: as §1
# [19] = molecular target: Gal(a1-3)Gal(b1-3)GlcNAc(b1-2)Man(a1-3)[Gal(a1-3)Gal(b1-3)GlcNAc(b1-2)Man(a1-6)]Man(b1-4)GlcNAc(b1-4)GlcNAc
# Procedure, shortened: as §1
# [20] = molecular target: Gal(a1-3)Gal(b1-3)GlcNAc(b1-3)GalNAc
# Procedure, shortened: as §1
# [21] = molecular target: Gal(a1-3)Gal(b1-3)GlcNAc(b1-6)GalNAc
# Procedure, shortened: as §1
# [22] = molecular target: Gal(a1-3)Gal(b1-3)[Fuc(a1-4)]GlcNAc(b1-2)Man(a1-3)[Gal(a1-3)Gal(b1-3)[Fuc(a1-4)]GlcNAc(b1-2)Man(a1-6)]Man(b1-4)GlcNAc(b1-4)GlcNAc
# Procedure, shortened: as §1
# Gal(a1-3)Gal(b1-4)Glc = molecular target: Gal(a1-3)Gal(b1-4)Glc
# Procedure, shortened: as §1
# Gal(a1-3)Gal(b1-4)GlcNAc = molecular target: Gal(a1-3)Gal(b1-4)GlcNAc
# Procedure, shortened: as §1
# [23] = molecular target: Gal(a1-3)Gal(b1-4)GlcNAc(b1-2)Man
# Procedure, shortened: as §1
# [24] = molecular target: Gal(a1-3)Gal(b1-4)GlcNAc(b1-2)Man(a1-3)[Gal(a1-3)Gal(b1-4)GlcNAc(b1-2)Man(a1-6)]Man(b1-4)GlcNAc(b1-4)GlcNAc
# Procedure, shortened: as §1
# [25] = molecular target: Gal(a1-3)Gal(b1-4)GlcNAc(b1-3)GalNAc
# Procedure, shortened: as §1
# [26] = molecular target: Gal(a1-3)Gal(b1-4)GlcNAc(b1-6)GalNAc
# Procedure, shortened: as §1
# [27] = molecular target: Gal(a1-3)Gal(b1-4)[Fuc(a1-3)]GlcNAc
# Procedure, shortened: as §1
# [28] = molecular target: Gal(a1-3)Gal(b1-4)[Fuc(a1-3)]GlcNAc(b1-2)Man(a1-3)[Gal(a1-3)Gal(b1-4)[Fuc(a1-3)]GlcNAc(b1-2)Man(a1-6)]Man(b1-4)GlcNAc(b1-4)GlcNAc
# Procedure, shortened: as §1
# Gal(a1-3)GalNAc = molecular target: Gal(a1-3)GalNAc
# Procedure, shortened: as §1
binder,measurement,setting,value
B1,glycan array binding signal (z-score),Fuc(a1-3)GlcNAc,-0.434
same,glycan array binding signal (z-score),[1],-0.284
same,glycan array binding signal (z-score),[2],-0.377
same,glycan array binding signal (z-score),[3],-0.299
same,glycan array binding signal (z-score),[4],-0.376
same,glycan array binding signal (z-score),[5],-0.317
same,glycan array binding signal (z-score),[6],-0.238
same,glycan array binding signal (z-score),[7],-0.365
same,glycan array binding signal (z-score),[8],-0.397
same,glycan array binding signal (z-score),[9],-0.325
same,glycan array binding signal (z-score),[10],-0.096
same,glycan array binding signal (z-score),[11],-0.273
same,glycan array binding signal (z-score),[12],-0.192
same,glycan array binding signal (z-score),[13],-0.396
same,glycan array binding signal (z-score),[14],-0.286
same,glycan array binding signal (z-score),[15],-0.093
same,glycan array binding signal (z-score),[16],-0.314
same,glycan array binding signal (z-score),[17],-0.362
same,glycan array binding signal (z-score),Fuc(a1-4)GlcNAc,-0.399
same,glycan array binding signal (z-score),Fuc(b1-3)GlcNAc,-0.397
same,glycan array binding signal (z-score),Gal(a1-2)Gal,0.169
same,glycan array binding signal (z-score),Gal(a1-3)Gal,2.38
same,glycan array binding signal (z-score),Gal(a1-3)Gal(b1-3)GlcNAc,2.06
same,glycan array binding signal (z-score),[18],1.14
same,glycan array binding signal (z-score),[19],-0.134
same,glycan array binding signal (z-score),[20],2.62
same,glycan array binding signal (z-score),[21],3.74
same,glycan array binding signal (z-score),[22],-0.16
same,glycan array binding signal (z-score),Gal(a1-3)Gal(b1-4)Glc,2.68
same,glycan array binding signal (z-score),Gal(a1-3)Gal(b1-4)GlcNAc,5.2
same,glycan array binding signal (z-score),[23],4.75
same,glycan array binding signal (z-score),[24],0.265
same,glycan array binding signal (z-score),[25],3.56
same,glycan array binding signal (z-score),[26],2.47
same,glycan array binding signal (z-score),[27],0.998
same,glycan array binding signal (z-score),[28],-0.262
same,glycan array binding signal (z-score),Gal(a1-3)GalNAc,1.12
